Whole data set: some 4,500 sequences, median “median log2 fold change of GCK-ALFA target abundance (FLAG IP / Myc IP barcode read proportion)” near 0.078, cut for the lowest 2% near -0.6. Some of the results follow.

B1: GBRAP_150_3912 (protein)
chain: DLEELLTVVDTLIDLLEAILDGHYDLLPHALKVAKLAVELAKEERKELLELAKKALEALEKAEKLLKEGGEEKEIKKEIEKALKLAEKLREEIEKLIKEE
B2: GBRAP_26_5432 (protein)
chain: VSELLDEMIDRLEEAADELLDPELAAAVKAEISTLALELEEKIEEENLSLEEIEKLLKEFIKELEEEMKELGVSEEKIKKLREIAEEEAKEFLKKLKELK
B3: GBRAP_35_5552 (protein)
chain: EEDKEILEMLKNTAEDLLLAVDDIPVEDLVTIAKSIAKTTLEIIKEEKENKEEVKELAEATLKMLEAVIKKAKKEGLPQEKIEELEKLKKEIEEALKKAL
B4: GBRAP_64_6482 (protein)
chain: DEEIEKLLEEAKKYLEKALELAKKENPEIAKKLKEALKLLEEAKKKNLEERADLVAEVADILNEILKDPSLTEELKELVSEALDKVSEALWELDEEIEKK
B5: GBRAP_137_3682 (protein)
chain: KTLKATIEEIDGYREVTITSDDESLAEELLDAVLDALDELGLKATVASLVKDGKAEIELFFPKDVTREQVLELLKKVADKLNVDLVIEDKVTGETIEYKA
B6: GBRAP_137_3624 (protein)
chain: ATVHIDLRHYEDVVEITVRLEDKEKAEEVAELILDVAHEHGALAVSIEFLPDGSLEAVIWVPRDRAEALLAALVRGLTEELGLTVVVRDLDTGAETTHEP
B7: GBRAP_11_2652 (protein)
chain: MKEVLKKAAKLAEEAAAAVDKLIAEGVDNEELRAKATKLINELEKLVKEHASPALKSDVQVAVDLWKEFLADPANAEQYAVELRAALDVLHGDFLLEIEE
B8: GBRAP_39_5629 (protein)
chain: EEEEELDLLESYAEAELEKLQVETGLPLEELYAELLARAREKVADDPELLAALEELDALAEEKGEEAREDLAAIMAALLAGEPLEDILKLMKAKIAEYKA

Chain of GABARAP, O95166 (O95166 whole entry, the tested form may be a part): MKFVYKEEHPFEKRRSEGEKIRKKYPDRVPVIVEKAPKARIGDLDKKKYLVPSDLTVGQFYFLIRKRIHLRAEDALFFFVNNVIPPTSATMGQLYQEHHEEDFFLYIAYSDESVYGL

This experiment addresses GABARAP, O95166. The experiment can be described thus: median log2 fold change of GCK-ALFA target abundance (FLAG IP / Myc IP barcode read proportion) (log2 ratio); each designed protein is fused to an ALFA-tag nanobody in HEK293 cells to bring the named protein to FLAG-tagged glucokinase (GCK); Myc marks an untargeted standard; higher = target protein stabilised (more abundant). To be noted: target protein: 3xFLAG-MCP-GCK-ALFA reporter; HEK293 landing pad (RPLP). Put shortly:
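Binders fused to an ALFA nanobody were recombined as a library into HEK293 landing-pad cells, which were induced with 2 μg mL^−1 doxycycline and then transfected to express a FLAG-tagged target and a Myc-tagged standard. After 48 h, circular RNA barcodes recovered by anti-FLAG and anti-Myc immunoprecipitation of lysates were reverse transcribed, amplified and sequenced. Each binder's target abundance is the median log2 ratio of FLAG to Myc barcode read proportions, from barcodes present at ≥10^−7 in both replicates, binders carrying ≥3 barcodes per replicate, a 10^−6 pseudocount and pooled replicates.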
Take B1: the “median log2 fold change” value was -0.0793.
In the case of B2, the “median log2 fold change” value was 0.00447.
As for B3, the “median log2 fold change” value was -0.041.
As for B4, the “median log2 fold change” value turned out to be 0.0184.
In the case of B5, the “median log2 fold change” value was -0.149.
For the molecule B6, the “median log2 fold change” value came to 0.0875.
For the molecule B7, the “median log2 fold change” value came out at 0.279.
Take B8: the “median log2 fold change” value turned out to be 0.133.

These data come from the supplement of paper PMC12632987.
